Source: PubChem BioAssay AID720542 (National Center for Advancing Translational Sciences (NCATS), 2013)
About 740 (0.21%) of roughly 360,000 compounds were called active. Inconclusive results, whose numbers are uncertain, are shown with a selection of clear calls. Calls follow the shape of the dose curve; as a rule, active = well fitted inhibition curve with a large enough effect; inconclusive = small, poorly fitted or top-dose-only effect; inactive = no such curve, though single readings can be large or run the other way. No potency is given beside an inconclusive call; the fits are too rough.
Also: nearly all actives have a fitted effect of over 45% in size.
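For activity change, negative = inhibition in this document: 0% = vehicle wells and -100% = peptide control.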
Potency is read from the fitted curve at half-maximal effect; tags tell the direction and shape of the fitted curve.

Each molecule was assayed on Plasmodium falciparum AMA1 (3D7) - RON2 peptide interaction (assay: qHTS for Inhibitors of AMA1-RON; Towards Development of Antimalarial Drug Lead: Primary Screen). Conditions: AlphaScreen AMA1-biotinylated RON2 peptide binding; activity change, negative = inhibition: at 58.2 µM (top of the series) unless noted.
In short: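 AMA1 (3D7) with his tag at 25 nM final met compounds first, then biotinylated RON2 peptide at 25 nM; detection used donor plus acceptor beads, 10 µg/mL apiece, read by AlphaScreen after 30 min at room temperature.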
In the case of `Cc1ccc(NC(=O)CN2CCN(C)CC2)cc1Br`, the Potency is reported as inconclusive [inhibitor, single point]. For `CCOc1ccccc1C=NN1CCCCCC1`, the Potency was inconclusive [inhibitor, single point]. `Cn1nc(C(F)(F)F)c(/C=N/OC(=O)c2ccccc2)c1Cl` was tested, and the Potency was inconclusive [inhibitor, single point]. For `CN(Cc1cn(C)nc1-c1ccc(Oc2ccccc2)cc1)Cc1cnc2ccccn12`, the Potency was “inactive”. With `COc1cccc(-n2cc(CN(C)C(=O)C3CCC(=O)N(C4CC4)C3)cn2)c1` (stereo unspecified) the Potency was “inactive”. With `COc1ccc(N2CCN(c3oc(COc4ccc(Cl)cc4Cl)nc3C#N)CC2)cc1` the Potency was active: 25.1 µM. `CN1N=C2c3ccccc3CCCC2C1c1ccc(F)cc1` (stereo unspecified) was tested, and the Potency was inconclusive [inhibitor, partial curve]. With `O=[N+]([O-])c1ccc(N2CCOCC2)cc1NC(c1ccccc1)c1ccccc1` the Potency was inconclusive [inhibitor, partial curve]. `COc1cccc(NC(=O)C2CCCCC2)c1` was tested, and the Potency was inconclusive [inhibitor, partial curve]. For `O=[N+]([O-])c1cc(Cl)c2cccnc2c1O`, the Potency was inconclusive [inhibitor, single point]. With `COc1cc(-c2nnc(SCC(=O)N3CCOCC3)o2)cc(OC)c1OC` the Potency was “inactive”. For `Cc1cc(-c2csc(Nc3ccccn3)n2)ccc1F`, the Potency was inconclusive [inhibitor, partial curve]. For `CCOC(=O)c1cc(-c2ccc(C)o2)n[nH]1`, the activity change, negative = inhibition was inconclusive: 0% [inhibitor]. In the case of `Cc1ccc(CSc2nnc(-c3ccccn3)n2N)cc1`, the Potency is reported as inconclusive [inhibitor, single point]. In the case of `COc1ccc(Nc2ccccc2NC(=O)c2ccccc2Br)cc1`, the Potency is reported as inconclusive [inhibitor, partial curve]. With `CC(C)(C)C(=O)NC(NC(=O)C(C)(C)C)c1ccc([N+](=O)[O-])cc1` the Potency was “inactive”. With `Cc1c2c(nc3c(C)cccc13)OC(C)C2` (stereo unspecified) the Potency was inconclusive [inhibitor, full curve]. With `Cn1ccc2c(N3CCCCCC3)cc3c(c21)C1CCC3O1` (stereo unspecified) the Potency was active: 31.6 µM. With `O=C(CCN1C(=O)/C(=C/c2ccccc2Cl)SC1=S)NC1CCCC1` the Potency was “inactive”. `O=C(O)C1Nc2c(O)cc(Cl)c([N+](=O)[O-])c2C2C=CCC12` (stereo unspecified) was tested, and the Potency was active: 2.24 µM. For `CC1CCCN(C2=C(NS(=O)(=O)c3ccc(Cl)cc3)C(=O)c3ccccc3C2=O)C1` (stereo unspecified), the Potency was inconclusive [inhibitor, full curve]. For `Cc1cc(C)c2cc(CN(CCO)C(=O)NC3CCCCC3)c(=O)[nH]c2c1`, the Potency was “inactive”. `CN(C)CCCNCC(=O)c1c(-c2ccccc2)n(C)c2ccccc12` was tested, and the Potency was inconclusive [inhibitor, single point]. With `CSc1ccc(CN2CCN(C(=O)Cc3ccccc3)CC2)cc1` the Potency was inconclusive [inhibitor, single point]. With `O=C(Cn1ccc(NC(=O)OCc2ccccc2)nc1=O)NCCCc1ccccc1` the Potency was inconclusive [inhibitor, partial curve, poor fit]. `O=C(O)c1ccc2cccnc2n1` was tested, and the Potency was “inactive”. `COc1ccccc1CNc1cc(-c2ccccc2)ccc1OC` was tested, and the Potency was inconclusive [inhibitor, single point]. In the case of `CCC(c1nnnn1C1CCCCC1)N(Cc1ccco1)Cc1cc2ccc(OC)cc2[nH]c1=O` (stereo unspecified), the Potency is reported as “inactive”. In the case of `Cc1ccc(O)c(C(=O)/C=C/c2ccc3c(c2)OCCO3)c1`, the Potency is reported as inconclusive [inhibitor, single point]. In the case of `CCN1CCN(C(=S)Nc2sc(C)c(-c3ccccc3)c2C(=O)OC)CC1`, the Potency is reported as inconclusive [inhibitor, partial curve]. For `Cc1cc2nc3ccc(N(C)C)cc3nc2cc1N`, the Potency was inconclusive [inhibitor, full curve]. With `Nc1nc(Cl)nc2c1ncn2C1CC(O)C(CO)O1` (stereo unspecified) the Potency was “inactive”. For `CN1CCN(C2=Cc3cc(Cl)ccc3Sc3cc(F)ccc32)CC1`, the Potency was inconclusive [inhibitor, partial curve]. For `COc1ccccc1NS(=O)(=O)c1cc(C(=O)N2CC(C)CC(C)C2)ccc1C` (stereo unspecified), the Potency was “inactive”. With `CCCCNC(=S)NNC(=O)c1ccncc1` the Potency was “inactive”. `COc1ccc(CNc2ccc3c(c2)nc(C)n3C)cc1` was tested, and the Potency was inconclusive [inhibitor, partial curve, poor fit]. `O=C1NC(=S)NC(=O)C1=Cc1ccc(Br)s1` was tested, and the Potency was inconclusive [inhibitor, single point]. `COC(=O)c1cc2c(ccn2-c2ccc(F)cc2)n1Cc1ccc(OC)cc1` was tested, and the Potency was inconclusive [inhibitor, single point]. `CN1/C(=C/C=C/c2n(C)c3cc([N+](=O)[O-])c([N+](=O)[O-])cc3[n+]2C)C(C)(C)c2ccccc21` was tested, and the Potency was inconclusive [inhibitor, single point]. For `COC(=O)/C=C/c1ccsc1NC(C)=O`, the Potency was inconclusive [inhibitor, full curve, poor fit]. `COC(=O)Nc1sc2nc(C)cc(C)c2c1-n1cccc1` was tested, and the Potency was inconclusive [inhibitor, partial curve, poor fit]. `CCOc1ccc(NCc2nc3ccccc3n2CCOc2ccccc2)cc1` was tested, and the Potency was active: 14.1 µM. With `COCCNC(=S)Nc1ccc2[nH]c(=O)[nH]c2c1` the Potency was “inactive”. `COC(=O)C1=C(C)N(C)C(=O)NC1c1cc2c(cc1[N+](=O)[O-])OCO2` (stereo unspecified) was tested, and the Potency was inconclusive [inhibitor, single point]. For `C/C=C(\C)C(=O)NCCN1C2=NC[C@H](Cc3ccc(O)cc3)N2C[C@H]1Cc1ccc(O)cc1`, the Potency was “inactive”. For `COc1ccccc1Oc1ccc(N/C=C/C(=O)c2ccc(C)o2)cc1`, the Potency was inconclusive [inhibitor, partial curve]. For `Cc1c(Cc2ccccc2)sc(NC(=O)/C=C/c2cccc3ccccc23)c1C(N)=O`, the Potency was “inactive”. With `CC(=O)c1cccc(Nc2nc(-c3sc(C)nc3C)cs2)c1` the Potency was “inactive”. With `COC(=O)C1=C(C)N(c2ccc(C(=O)OC)cc2)C(=O)C1` the Potency was inconclusive [inhibitor, single point]. `CC(=O)c1c(C)[nH]c(C(=O)OCc2cccc(Cl)c2)c1C` was tested, and the Potency was inconclusive [inhibitor, partial curve]. With `CCn1cnc2cc(NCc3ccc(Br)cc3)ccc21` the Potency was inconclusive [inhibitor, single point]. With `NC1=NC[C@H](Cc2ccccc2)N1CCc1cccc(F)c1` the Potency was “inactive”. For `O=S1(=O)c2ccccc2C(CCO)N1Cc1ccccc1` (stereo unspecified), the Potency was “inactive”. With `CC(C)(C)n1ncc2c(=O)n(CC(=O)NCc3ccccc3)cnc21` the Potency was “inactive”. For `Cc1ccc(C)n1N1C(=O)/C(=C\c2ccc(Cl)cc2)SC1=S`, the Potency was inconclusive [inhibitor, partial curve]. In the case of `N#Cc1nc(Cc2ccccc2)oc1N1CCC(Cc2ccccc2)CC1`, the Potency is reported as inconclusive [inhibitor, partial curve]. `COC(=O)CCC(=O)OC1(C)C(=O)C2=COC(c3ccc(OC)cc3)=CC2=C(Br)C1=O` (stereo unspecified) was tested, and the Potency was inconclusive [inhibitor, single point]. In the case of `COc1ccc(N=CC2=C(O)CC(C)(C)CC2=O)cc1`, the Potency is reported as “inactive”. With `Cc1cc(NC(=O)CSc2nnc(-c3cccnc3)n2C)no1` the Potency was “inactive”. For `Cc1cc(F)ccc1NCc1ccccc1[N+](=O)[O-]`, the Potency was inconclusive [inhibitor, single point]. For `CCCCn1nnc(NC(=S)NC(=O)c2ccc(OCC)c([N+](=O)[O-])c2)n1`, the Potency was “inactive”. `CCOC(=O)Cc1csc(NC(=O)Nc2cccc(Cl)c2)n1` was tested, and the Potency was inconclusive [inhibitor, partial curve]. In the case of `S=C(c1ccc(-c2ccc(Cl)cc2Cl)o1)N1CCCCC1`, the Potency is reported as inconclusive [inhibitor, partial curve]. For `O=C(CSc1ncc(-c2ccccc2)n1-c1ccccc1)NCc1ccco1`, the Potency was inconclusive [inhibitor, partial curve]. `O=C(COC(=O)CCc1ccc(S(=O)(=O)N2CCOCC2)cc1)Nc1ccccc1[N+](=O)[O-]` was tested, and the activity change, negative = inhibition was inconclusive: -32.3% [inhibitor]. For `COCCCn1c(SCC(=O)Nc2ccc(C(=O)OC)cc2)nc2ccccc2c1=O`, the Potency was inconclusive [inhibitor, partial curve]. With `Cc1cc(C)nc(/N=C(\N)Nc2ccc(CC(=O)OC(C)C)cc2)n1` the Potency was “inactive”. `O=C(C=Cc1ccccc1)c1ccc([N+](=O)[O-])cc1` was tested, and the Potency was inconclusive [inhibitor, partial curve]. For `COc1cc(/C=C2\CCc3c2nc2ccccc2c3C(=O)O)cc(OC)c1OC`, the Potency was inconclusive [inhibitor, partial curve]. For `Cc1ccc(-c2cn3nc(C)c(C)nc3n2)cc1`, the Potency was “inactive”. With `COc1ccc(-c2noc(CCC(=O)Nc3ccc4c(c3)OCCO4)n2)cc1` the Potency was “inactive”. In the case of `CN1C(=O)/C(=C/C=C/c2ccco2)C(=O)NC1=S`, the Potency is reported as inconclusive [inhibitor, partial curve]. With `O=C(NCc1ccccc1)C1COc2ccccc2O1` (stereo unspecified) the Potency was “inactive”. For `COc1cccc(CNc2nc3nc(C)cc(C)n3n2)c1`, the Potency was “inactive”. In the case of `CN(/N=C/C=C/c1ccccc1)C1=NS(=O)(=O)c2ccccc21`, the Potency is reported as “inactive”. With `CCc1c(C)c(C#N)c2nc3ccccc3n2c1Nc1c(C)n(C)n(-c2ccccc2)c1=O` the Potency was inconclusive [inhibitor, full curve, poor fit].
